Test results from PubChem BioAssay AID1508624 (National Center for Advancing Translational Sciences (NCATS), 2021).
The campaign covered roughly 48,000 compounds. About 120 (0.25%) were called active. Inconclusive results (about 4%) are left out. The call rests on the fitted dose curve; in most records, active means well fitted activation curve with a large enough effect; inconclusive means small, poorly fitted or top-dose-only effect, or another doubt; inactive means no such curve, though single readings can be large or run the other way. Some of the results follow.

Assay: Primary qHTS for Identification of Small Molecule Activators of Huntingtin-Antisense Promoter Activity; further: nearly all actives have a fitted effect of over 55% in size
Details: HEK293 HTT-AS promoter firefly luciferase reporter, 24 h; series mostly up to 57.5 µM; activity change, positive = activation: at the top concentration
Summary of the method: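 Firefly luciferase signal from promoter-reporter HEK293 cells was scaled between vehicle (0%) and zero RLU (-100%). Compounds were tested at final concentrations of up to 57.5 uM over 24 h at 37 degrees C. PTC124 at 50 uM final served as control inhibitor.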

Activity change, positive = activation, inactive:
Cc1oc(C)c2c(=O)cc(-c3ccc4c(c3)OCO4)cc(OC(=O)c3ccccc3Br)c12 -15.2%, COc1ccc(NC(=O)C2CCN(S(=O)(=O)c3ccc4c(c3)CCCC(=O)N4)CC2)cc1Cl -14.9%, COc1ccc(S(=O)(=O)N2CCN(c3ccccc3OC)CC2)cc1-c1noc(C)n1 -3.41%, Cc1ccc(Cn2c(-c3ccccc3)nc3ccccc32)cc1 -4.21%, COc1cc(/C=C(\C#N)c2nc3ccccc3c(=O)[nH]2)cc(OC)c1OC -18.6%, Cc1ccc(-c2nc3ccccc3n3c(-c4ccccc4)c4c(=O)n(C)c(=O)n(C)c4c23)cc1 11% [at 11.5 µM, percent change from vehicle, -100% = no light], CCn1ccc2cc(S(=O)(=O)N3CCCN(C(=O)NCC(C)C)CC3)ccc21 -18.6%, COc1cc(OC)c(NC(=O)c2cc(CN3CCOCC3)on2)cc1Cl -5.05%, CCn1ccc2cc(S(=O)(=O)N3CCC(C(=O)NCc4cccc(C)c4)CC3)ccc21 -14.8%, Cc1ccc(C)c(Cn2c(=O)n(CCCCC(=O)NCc3ccccc3Cl)c(=O)c3ccccc32)c1 -7.28%, COc1ccccc1N1CCN(c2csc3ccc(Cl)cc3c2=O)CC1 -5.61%, CCOc1ccccc1NC(=O)Cn1ccn(-c2ccccc2)c(=O)c1=O -6.56%, CCCCNC(=O)c1cc(Sc2ccc(OCC)cc2)nc2ccccc12 -24.9%, Cn1c(=NC(=O)c2ccc3c(c2)OCCO3)sc2cc(S(C)(=O)=O)ccc21 12.5%, COc1ccccc1CNC(=O)C(CC(C)C)NS(=O)(=O)c1ccc2c(c1)oc(=O)n2C (stereo unspecified) -4.84%, CCC(=O)N1CCc2cc(S(=O)(=O)NCCC(=O)NCc3ccccc3Cl)ccc21 -8.29%, Cc1ccccc1-c1noc(C(C)NC(=O)c2ccco2)n1 (stereo unspecified) -14.7%, CCOC(=O)c1ccc(NC(=O)C2CCCN(c3ccc(Sc4ccc(C)cc4)nn3)C2)cc1 (stereo unspecified) -28.4%, CC(C)c1nc2ccc(C(=O)NCCCN3CCN(c4ccccc4F)CC3)cc2o1 -18.9%, COC(=O)c1ccc(-n2nnc(-c3nc(-c4ccc5c(c4)OCO5)no3)c2C)cc1 -11.1%, CCN(C(=O)CN(C)S(=O)(=O)c1ccc2c(c1)c(=O)n(C)c(=O)n2C)c1ccc(OC)cc1 -16.3%, CC(=O)NCCNc1nc2c(S(=O)(=O)c3ccc(C)c(C)c3)nnn2c2ccc(Cl)cc12 16%, Cc1cc(Br)ccc1NC(=O)CCS(=O)(=O)c1cccc2nsnc12 -30.8%, Cc1ccc(C(C)C)c(OCC(=O)Nc2ccc(S(=O)(=O)Nc3onc(C)c3C)cc2)c1 -19.9%, N#Cc1ccc(CN2C(=O)c3ccccc3Sc3ccc(C(=O)OCc4ccco4)cc32)cc1 -0.679%, CCOc1ccc2nc(NC(=O)CS(=O)(=O)c3ccc(Cl)cc3)sc2c1 -4.65%, Cc1ccc(C2c3c(oc4ccccc4c3=O)C(=O)N2c2ccc(C)cn2)cc1 (stereo unspecified) -6.19%, Cc1ccc(NC(=O)Nc2nnc(N3CCCC3)s2)c(C)c1 21%, Cc1ccc(CNC(=O)Cc2coc3cc(C)cc(C)c23)cc1 -14.7%, CCCCN(C)C(=O)C1CCCN(c2ncnc3onc(-c4ccc(F)cc4)c23)C1 (stereo unspecified) -16.5%, Cc1cccc(N2CCN(C(=O)CSCc3ccc(F)cc3)CC2)c1C 6.61%, CCN(CC)S(=O)(=O)c1ccc2c(c1)c(=O)c(C(=O)NCc1ccccc1)cn2C -15.8%, O=C(NCc1ccccc1)c1ccc(NC(=O)c2nsc3ccccc23)cc1 -35.1%, COc1ccccc1CNC(=O)c1ccc(CS(=O)(=O)c2ccccc2C)o1 -18.7%, COc1ccc(CNC(=O)CCC(=O)N2CC3CCCN3c3ccccc32)cc1 (stereo unspecified) -13.6%, CC(=O)N1CCCc2cc(S(=O)(=O)N3CCC(C(=O)NCc4ccc(N(C)C)cc4)CC3)ccc21 -28.3%, COc1cc(CN(CC2CCCO2)C(=O)c2ccc(F)cc2)cc(OC)c1OC (stereo unspecified) -6.56%, CCCNC(=O)c1ccc(-n2c(-c3ccccc3)cc3c2CCCCC3)cc1 -0.686%, CCOc1cccc(CC(=O)Nc2ccc3nc(N4CCCCC4)cc(C)c3c2)c1OCC -17.9%, CCCCNc1nc2c(S(=O)(=O)c3ccc(C)c(C)c3)nnn2c2ccsc12 -30.2%, COc1cc(Nc2ncc3c(n2)CCN(Cc2cc(Br)cs2)C3)cc(OC)c1 -7.71%, COC(=O)c1ccccc1NC(=O)c1ccc2c(c1)CCN2S(C)(=O)=O -0.288%, Cc1cc(Nc2ccc(F)cc2)n2c(nc3ccccc32)c1C#N -30.5%, Cc1ccc(CSc2nc3c([nH]c4ccccc43)c(=O)n2C)cc1 -6.67%, Cc1c(-c2nc(-c3ccccc3)no2)nnn1-c1cccc(C(F)(F)F)c1 16.3%, COc1ccccc1CNC(=O)c1ccc2c(c1)nc(C)n2-c1ccccc1OC -5.19%, Cc1nn2c(-c3ccco3)ccnc2c1-c1ccc(F)cc1 24.7%, Cc1nc2ccccn2c(=O)c1NC(=O)c1ccc(C(F)(F)F)cc1 11.9%, COc1ccccc1NC(=O)CN1CCCN(S(=O)(=O)c2ccc(Br)cc2)CC1 -33%, COc1ccc(NC(=O)c2cccn2-c2nnc(N3CCCCC3)s2)cc1Cl -19.7%, CCOc1ccccc1OCCN[C@H](C)Cc1ccc(OC)c(S(N)(=O)=O)c1 -4.89%, Cc1ccc(NC(=O)Cn2c(=O)n(CCCCC(=O)NCc3ccccc3Cl)c(=O)c3ccccc32)cc1C -11.9%, CCOc1ccc(NC(=O)Cn2c(C)cc3ccccc3c2=O)cc1 -4.83%, Cc1ccc(-c2nnc(C3CCN(S(=O)(=O)c4ccc(C)c(C)c4)CC3)o2)cc1 -10.1%, CCOc1ccccc1NC(=O)CN1C(=O)CC(c2ccc(OC)c(OC)c2)Sc2ccccc21 (stereo unspecified) -30%, CCCCOC(=O)c1ccc(NC(=O)CSc2nc3c(c(=O)[nH]2)CCCC3)cc1 -5.96%, Cn1c(-n2cccc2)c(-c2c(-c3ccccc3)[nH]c3c2c(=O)n(C)c(=O)n3C)c(=O)n(C)c1=O -12%, CCN1CCOC(=O)C1CC(=O)Nc1cc(C)cc(C)c1 (stereo unspecified) -28.2%, Cc1ccccc1CN1C(=O)c2ccccc2Sc2ccc(C(=O)NC(C)c3ccccc3)cc21 (stereo unspecified) -7.78%, Cc1ccc(N2C(=O)CCSC23C(=O)N(Cc2ccccc2)c2ccccc23)cc1F (stereo unspecified) -41.3%, O=C(NCc1ccccc1)c1nn(-c2ccccc2)nc1CO -15.9%
